Source: PubChem BioAssay AID686978 (National Center for Advancing Translational Sciences (NCATS), 2013)
The whole screen tested about 420,000 compounds, of which about 64,000 (15%) were called active. Inconclusive means that the source gave no clear call. Such entries were picked first, then a sample of the others. Calls come from the whole dose curve; as a rule, active = well fitted inhibition curve with a large enough effect; inconclusive = small, poorly fitted or top-dose-only effect; inactive = flat fitted curve, though single readings scatter. Potencies of inconclusive entries are left out as doubtful fits.

Experiment: qHTS for Inhibitors of human tyrosyl-DNA phosphodiesterase 1 (TDP1): qHTS in cells in absence of CPT; note: nearly all actives have a fitted effect of over 55% in size
Conditions: DT40 Tdp1-/- hTDP1 cells, no CPT, ATP luminescence, 48 h; activity change, negative = growth inhibition: at 46.2 µM (top of the series)
In short: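 Stably hTDP1-transfected Tdp1-null chicken DT40 cells were treated with library compounds minus camptothecin and grown for at least 48 hr at 37 °C, after which cellular ATP was quantified by luminescence.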
% is set by controls: 0 for no effect and ±100 for the full control effect; potency is the fitted concentration of half-maximal effect; tags give direction and shape of the fitted curve.

| SMILES | activity change, negative = growth inhibition | Potency |
| --- | --- | --- |
| CCN(CC)S(=O)(=O)c1ccc(C(=O)NNC(=O)c2cccs2)cc1 | inactive: 9.1% | – |
| CCCOc1ccc(-c2nonc2NC(=O)c2ccco2)cc1OCCC | – | inconclusive [inhibitor, single point] |
| COc1ccc(CCNC(=O)CC2SC(=Nc3cc(C)cc(C)c3)NC2=O)cc1OC (stereo unspecified) | inactive: -23.3% | – |
| O=C(Nc1ccccc1)c1ccccc1Oc1ccc(C(F)(F)F)cc1[N+](=O)[O-] | inconclusive: -30.1% [inhibitor] | – |
| CSCCC(NS(=O)(=O)c1cccc(C(F)(F)F)c1)C(=O)N(C)CCOc1ccc(Cl)cc1 (stereo unspecified) | – | inconclusive [inhibitor, single point] |
| O=C(NC1CCCCCC1)C1CCN(C(=O)c2cccc(Cl)c2)CC1 | inactive: -2.19% | – |
| O=S(=O)(Oc1ccc(C(=S)N2CCOCC2)cc1)c1ccc(Cl)cc1 | – | inconclusive [inhibitor, single point] |
| Cn1c2c(c(=O)n(C)c1=O)CS(=O)c1ccccc1N2 (stereo unspecified) | inactive: 0.592% | – |
| Cc1cc(Br)cc(C)c1NC(=O)c1sc2ncn(Cc3cccc(F)c3)c(=O)c2c1C | – | active: 18.4 µM |
| Cc1ccc(S(=O)(=O)N2CCN(C(=O)c3cccc(-n4cccc4)c3)CC2)cc1 | – | inconclusive [inhibitor, partial curve] |
| CC1Cc2ccccc2C[N+]1(C)CC(=O)c1cccc([N+](=O)[O-])c1 (stereo unspecified) | – | inconclusive [inhibitor, partial curve] |
| CNC(=O)CSc1nnc(-c2cnccn2)n1C | inactive: -9.85% | – |
| O=C1CN(CN2CCCCC2)C(=O)CN1CN1CCCCC1 | – | inconclusive [inhibitor, partial curve] |
| CCc1ccc(NC(=O)Nc2ccncc2)cc1 | – | inconclusive [inhibitor, single point] |
| Cc1cccc(OC(=O)Cn2c(C(F)(F)F)nc3ccccc32)c1 | – | inconclusive [inhibitor, single point] |
| O=C(NCc1ccccn1)C1CCN(S(=O)(=O)c2ccc(Br)cc2)CC1 | inactive: 4.5% | – |
| Cc1cc(S(=O)(=O)Nc2ccc(C(=O)NCCCN3CCOCC3)cc2)ccc1F | inactive: -10.8% | – |
| COc1ccc(NC(=O)Nc2nnc([C@@H]3C[C@H](O)[C@@H](CO)O3)s2)cc1 | inactive: -4.56% | – |
| Clc1ccc(-n2cc(COCc3ccccc3)nn2)cc1 | inconclusive: -31% [inhibitor] | – |
| COc1cc(CNc2ccc3[nH]c(=O)[nH]c3c2)ccc1OCc1ccccc1 | – | inconclusive [inhibitor, partial curve] |
| CN(C)c1cccc2c1c(NC(=O)c1ccc(F)cc1)nn2C | – | inconclusive [inhibitor, single point] |
| Cc1cccc(/C=N/NC(=O)c2cc(Br)ccc2O)n1 | – | inconclusive [inhibitor, partial curve, poor fit] |
| O=C(NC1(C(F)(F)F)N=C(c2ccccc2)NC1=O)c1ccccc1F (stereo unspecified) | inactive: -13.3% | – |
| CCNC(=O)c1ccc(C)c(-n2c(C)nc3cccnc32)c1 | inactive: -0.699% | – |
| CCN(C(=O)c1cc2c(=O)n3ccccc3nc2s1)C1CCCCC1 | – | inconclusive [inhibitor, single point] |
| CSc1ccc(C2=CC(=O)C[C@H](c3ccc4c(c3)OCO4)C2)cc1 | – | inconclusive [inhibitor, single point] |

| SMILES | activity change, negative = growth inhibition | Potency |
| --- | --- | --- |
| CCOc1ccc(NC(=O)CN2C(=O)CSC2=O)cc1 | – | inconclusive [inhibitor, single point] |
| CCC(NC(=O)CNC(=O)CNC(=O)c1ccc(Cl)cc1Cl)c1ccc(C)cc1 (stereo unspecified) | – | inconclusive [inhibitor, single point] |
| CCOc1ccc(-c2nnn(CCC#N)n2)cc1OC | – | inconclusive [inhibitor, single point] |
| Cc1ccc(CSCCC(=O)NCCc2ccc(Cl)cc2)cc1 | inconclusive: -31% [inhibitor] | – |
| COc1ccc(Cc2noc(CN3CCCC(OCc4ccccn4)C3)n2)cc1OC (stereo unspecified) | inactive: -22% | – |
| COc1ccc(CN2CC(C(=O)NCCCN3CCN(C)CC3)CC2=O)cc1 (stereo unspecified) | inactive: -2.35% | – |
| O=C(O)c1cccnc1Nc1ccc(Cl)cc1 | – | inconclusive [inhibitor, partial curve] |
| Cc1cccc(OCc2nc(C#N)c(N3CC(C)CC(C)C3)o2)c1 (stereo unspecified) | – | inconclusive [inhibitor, single point] |
| C=CCNC(=S)NNC(=O)CCC(O)CCCCC (stereo unspecified) | – | active: 18.4 µM |
| O=C(Cn1c(-c2cccs2)cc2ccccc21)N1CCN(c2ccc(Cl)cc2)CC1 | – | inconclusive [inhibitor, single point] |
| O=C(NNC(=O)c1ccccc1O)c1cc2ccccc2o1 | – | active: 23.1 µM |
| CCN(CC)S(=O)(=O)c1cccc(C(=O)NCCCN2CCOCC2)c1 | inactive: -16.2% | – |
| O=C1CCc2cc(S(=O)(=O)NCCC(=O)N3CCN(c4cccc(Cl)c4)CC3)ccc2N1 | – | active: 10.3 µM |
| COc1ccccc1C1/C(=C(/O)c2ccc(OC(C)C)cc2)C(=O)C(=O)N1c1cc(C)on1 (stereo unspecified) | inactive: -14.2% | – |
| CCOc1ccc(C2C(C(=O)Nc3ccccc3)=C(C)Nc3nc(-c4ccccc4)nn32)cc1OC (stereo unspecified) | – | inconclusive [inhibitor, single point] |
| CSc1ncccc1C(=O)OCC(=O)NCc1ccccc1 | inactive: 8.01% | – |
| Cc1cc(S(=O)(=O)N2CCCCC2)c(C)s1 | inactive: 1.86% | – |
| COCCNC(=S)N(CCc1c(C)[nH]c2ccc(C)cc12)Cc1ccco1 | – | inconclusive [inhibitor, single point] |
| O=C(CN1CCN(S(=O)(=O)c2ccc(Br)cc2)CC1)Nc1ccc2c(c1)OCCO2 | inactive: -7.46% | – |
| COc1ccc(Cl)cc1NC(=O)c1cccc(S(=O)(=O)Nc2c(C)n(C)n(-c3ccccc3)c2=O)c1 | inactive: -29.7% | – |
| COc1ccc(Nc2c(-c3ccc(C)cc3)nc3cnccn23)cc1 | – | inconclusive [inhibitor, partial curve] |
| CC(=O)Nc1ccc2c(COC(=O)[C@@H](NS(=O)(=O)c3ccc(C)cc3)C(C)C)cc(=O)oc2c1 | – | inconclusive [inhibitor, single point] |
| C[C@H](CO)N1C[C@H](C)[C@H](CN(C)C(=O)Nc2ccc(N3CCN(C)CC3)cc2)OCc2cnnn2CCCC1=O | inactive: -12.8% | – |
| Brc1ccc(-c2nc(N/N=C/c3cccnc3)c3ccccc3n2)cc1 | – | active: 13 µM |
| COc1ccc(-c2cn3c(n2)sc2cc(C(=O)NCCC4=CCCCC4)ccc23)cc1 | – | active: 13 µM |
| COc1cccc(NC(=O)Cn2c(CCC(=O)O)ccc2-c2ccc(C)cc2)c1 | inactive: -26.2% | – |

| SMILES | activity change, negative = growth inhibition | Potency |
| --- | --- | --- |
| Cc1ccc(CNC(=O)c2c[nH]c3ccc(S(=O)(=O)N4CCOCC4)cc3c2=O)cc1 | – | inconclusive [inhibitor, partial curve, poor fit] |
| Cc1cc(C)n(CCc2nc3c4ccccc4nc(SCc4ccc(F)cc4)n3n2)n1 | inactive: 9.56% | – |
| O=C(NCc1ccccc1)c1cc(C2CCCN(C(=O)c3ccc4c(c3)CCO4)C2)on1 (stereo unspecified) | – | inconclusive [inhibitor, single point] |
| COc1ccc(OC)c(S(=O)(=O)Nc2cc(C)on2)c1 | inactive: 31.7% | – |
| Cc1ccc(S(=O)(=O)N2C3CC(c4ccccc4)N(S(=O)(=O)c4ccccc4Cl)CC3C(=O)C[C@H]2c2ccccc2)cc1 (stereo partly specified) | inactive: -15.9% | – |
| COc1cc(CN2CCCC(N3CCN(c4ccccc4C)CC3)C2)cc(Cl)c1O (stereo unspecified) | – | inconclusive [inhibitor, single point] |
| c1ccc(C(c2ccccc2)c2noc(CN3CCN(C4CCCC4)CC3)n2)cc1 | – | active: 20.6 µM |
| CCC1=NN(C(=O)c2ccc(Br)cc2)C(O)(c2ccc(C)cc2)C1 (stereo unspecified) | – | active: 5.17 µM |
| CCOC(=O)N1CCN(c2ncc(C(F)(F)F)cc2Cl)CC1 | – | inconclusive [inhibitor, single point] |
| CCCCn1c(SCc2nnc(-c3ccccc3)o2)nc2c1c(=O)n(C)c(=O)n2C | – | active: 10.3 µM |
| Nc1[nH]c(C(=O)c2ccccc2)c(-c2ccccc2Br)c1C(=O)NCCc1c[nH]c2ccccc12 | – | active: 20.6 µM |
| Cc1cc(C(=O)COc2ccccc2Cl)c(C)n1-c1ccc2c(c1)OCO2 | – | active: 6.51 µM |
| CCC(c1nnnn1-c1c(C)cccc1C)N1CCN(c2ccccn2)CC1 (stereo unspecified) | – | inconclusive [inhibitor, single point] |
| Cc1c(C(=O)Nc2ccc(F)cc2F)oc2c1-c1nn(Cc3c(F)cccc3Cl)cc1CC2 | – | inconclusive [inhibitor, single point] |
| Cn1c2ccccc2c2cc(C(=O)NNC(=O)CCl)sc21 | – | active: 9.2 µM |
| CCc1cccc(C)c1N(C(=O)Cn1c(CO)nc2ccccc21)C(C)COC (stereo unspecified) | inactive: -20.8% | – |
| S=c1[nH]nc(Cc2cccc3ccccc23)n1-c1ccccc1 | – | inconclusive [inhibitor, single point] |
| C/C(=N\NC(=O)c1nnn(-c2nonc2N)c1CN1CCCCC1)c1ccccc1O | – | active: 13 µM |
| CCOC(=O)Cc1nnc(NC(=O)CCc2ccccc2)s1 | inactive: -0.568% | – |
| CC1(C)CC(=O)C2=C(C1)NCN(CCCN1CCOCC1)C2 | inactive: -11.2% | – |
| CCc1ccc(N2CC(c3nnc(NC(=O)c4ccco4)s3)CC2=O)cc1 (stereo unspecified) | inactive: -10.1% | – |
| O=C(NCCN1CCN(c2ccccc2F)CC1)c1ccc2nc3ccccc3c(=O)n2c1 | – | inconclusive [inhibitor, partial curve] |
| COc1cccc(OCC(O)CN2CCN(C(c3ccccc3)c3ccccc3)CC2)c1 (stereo unspecified) | – | active: 13 µM |
| COc1ccc(N/C=C/C(=O)C(F)(F)F)cc1 | inconclusive: -31.4% [inhibitor] | – |
